Among all 44,000 compounds or so, about 340 (0.77%) were called active. Not shown: some 5% with an inconclusive outcome. The call rests on the fitted dose curve; in most records, active means well fitted inhibition curve with a large enough effect; inconclusive means small, poorly fitted or top-dose-only effect; inactive means flat fitted curve, though single readings scatter. This is one part of the list.
Experiment: Acumen qHTS Assay for Inhibitors of the mTORC1 Signaling Pathway in MEF (Tsc2-/-, p53-/-) Cells: Sytravon;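 further: plate controls were DMSO for no effect and rapamycin for full effect; nearly all actives have a fitted effect of over 50% in size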
Settings: phospho-rpS6 immunofluorescence/PI, 24 h; series mostly up to 38.3 µM; activity change, negative = inhibition: at the top concentration
Method in brief: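 Compounds act on Tsc2-/-, p53-/- fibroblasts carrying an empty vector for 24 h before fixation and dual staining for phospho-S6 and DNA (propidium iodide). Values are percentages of cells above a rapamycin-defined pS6/PI threshold.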

Activity change, negative = inhibition, inactive:
COc1ccc(-c2nnc(SCC(=O)N3CCCCC3)o2)cc1 -12.5%, CCOc1ccccc1-c1noc(CSc2nnc(-c3ccncc3)n2-c2ccc(F)cc2)n1 2.19%, CC1CCN(C(=O)CN2c3ccc(Br)cc3-c3ccccc3S2(=O)=O)CC1 -8.44%, O=C(COc1ccccc1)Nc1c(C(=O)N2CCN(c3ccc(F)cc3)CC2)oc2ccccc12 7.32%, O=C1CC(c2ccccc2)Cc2[nH]c(=O)c(C(=O)Nc3ccc(F)cc3)cc21 (centres undefined) 0%, CCOc1ccc(CCNC(=O)CCCc2nnc3n(CCCOC)c(=O)c4sccc4n23)cc1 3.18%, Cc1c(C(=O)N2CCCCCC2)c(S(=O)(=O)Nc2ccc(OC(F)(F)F)cc2)c(C)n1C 0%, CCOC(=O)c1ccc(NC(=O)CSc2cc(-c3ccccc3)nc(C)n2)cc1 -1.95%, CC(C)CC(=O)Nc1nnc(S(=O)(=O)N(C)c2ccc(Cl)cc2)s1 3.86%, Cc1ccc(C)c(N(C)C(=O)CCNC(=O)Cn2cnc3ccccc3c2=O)c1 -0.178%, Cc1c(-c2ccc(Cl)cc2)c(=O)oc2c(CN3CCN(C)CC3)c(O)ccc12 -20.5%, O=C(CNC(=O)c1ccccc1Cl)OCc1cc(=O)n2nc(C3CC3)sc2n1 -0.249%, CC1CCc2c(sc3nc(-c4cc5ccccc5oc4=O)nc(Cl)c23)C1 (centres undefined) -4.63%, CCOC(=O)C1CCCN(C(=O)c2cc3c(Cl)nc4ccccc4c3s2)C1 (centres undefined) -12.4%, COc1cccc2sc(N(Cc3cccnc3)C(=O)C3CCCCC3)nc12 -2.45%, CC(C)c1nn2c(=O)cc(COC(=O)c3cccc(NC(=O)c4ccccc4F)c3)nc2s1 0%, CCOc1ccc(C2c3c(-c4ccccc4O)n[nH]c3C(=O)N2Cc2cccnc2)cc1OC (centres undefined) -3.27%, CCC1Oc2ccc(C)cc2N(CC(=O)NCc2ccc(F)cc2)C1=O (centres undefined) 11.5%, O=C(Nc1cccc(Cl)c1)C(Cc1ccccc1)n1cccc1 (centres undefined) -6.53%, CCOC(=O)c1ccc2c(c1)sc1nc(-c3ccc(OCC)cc3)cn12 0.557%, COc1cccc(CNC(=O)Cn2c(=O)cc(C(F)(F)F)c3c(C)nn(C)c32)c1OC -7.82%, O=C(NCCS(=O)(=O)N1CCN(c2ccccc2F)CC1)c1ccccc1C(F)(F)F -0.208%, Fc1ccc(F)c(Nc2c3c(nc4ccc(Cl)cc24)CCC3)c1 2.2%, CCN(CC)CCCNC(=O)c1c2c(nc3ccccc13)C(=O)N(C1CCCCC1)C2 -0.48%, COc1ccc(N2C(=O)C(CC(=O)Nc3ccc(Cl)cc3)N(Cc3ccc4c(c3)OCO4)C2=O)cc1 (centres undefined) 1.89%, COc1ccc(NC(=O)CCc2nc3cccnc3n2-c2ccccc2)c(OC)c1 -0.393%, CCOC(=O)c1c(NC(=O)c2cc(=O)c3cc(Cl)ccc3o2)sc(C)c1C -1.51%, Cc1cccc(-c2nc(SCc3cc(=O)c4cccc(F)c4[nH]3)n[nH]2)c1 -14.1%, Cc1ccc(C)c(N2CCN(C(=O)CN3CCSc4ccccc43)CC2)c1 -1.57%, COc1cc(C(=O)Nc2ccccc2OCc2cc(=O)n3c(C)csc3n2)cc(OC)c1OC 0.989%, CCOc1ccc(CCNC(=O)CSc2nnnn2-c2ccccc2Cl)cc1OCC -12.5%, COCCn1c(=N)c(C(=O)NCC2CCCO2)cc2c(=O)n3ccccc3nc21 (centres undefined) -1.15%, CCN1CCN(C(c2ccc(C)cc2)c2sc3nc(-c4ccco4)nn3c2O)CC1 (centres undefined) -1.83%, COc1ccc(Nc2nc3cc(Cl)c(Cl)cc3n3cnnc23)cc1Cl -12.6%, Cc1ccccc1OCCCn1c(-c2ccc(Cl)cc2)nc2ccccc2c1=O 5.47%, O=C(Nc1nnc(S(=O)(=O)N2CCCC2)s1)c1ccccc1Br -0.65%, Cc1ccccc1Cn1nnc2c(=O)[nH]c(C3CCCN(C(=O)c4ccc(F)cc4)C3)nc21 (centres undefined) -6.61%, COc1ccc(NC(=O)CC2C(=O)N(c3ccc(C)cc3)C(=O)N2Cc2ccc3c(c2)OCO3)cc1 (centres undefined) -12.9%, CCOC(=O)c1ccc(NC(=O)CSc2nnc(CNC(=O)c3ccc(OC)cc3)n2CC)cc1 -1.3%, CC1CCN(CCCNC(=O)c2cn(C)c3ccc(S(=O)(=O)N(C)C4CCCCC4)cc3c2=O)CC1 2.79%, COc1cc2c(cc1OC)C(COc1ccc(C(C)C)cc1)N(C(=O)c1ccc(S(=O)(=O)N3CCCC3)cc1)CC2 (centres undefined) 5.17%, COc1ccc(N2CCN(S(=O)(=O)c3ccc4c(c3)CCCN4C(C)=O)CC2)cc1 -1.8%, CCC(C)n1c(SCc2c(F)cccc2Cl)nc2ccsc2c1=O (centres undefined) -12.3%, COc1cc(N2C(=O)CSC23C(=O)N(Cc2ccc(C)cc2)c2ccccc23)cc(OC)c1OC (centres undefined) 0.831%, Cc1ccc2c(c1)N(C(=O)CCC(=O)NCc1cccs1)CCO2 0.0685%, Cc1ccc(C)c(CN2C(=O)c3ccccc3S(=O)c3ccc(C(=O)N4CCN(c5ccccc5F)CC4)cc32)c1 (centres undefined) -8.04%, CCc1ccc(-c2nc3cc(NC(=O)c4cc5ccccc5cc4OC)ccc3o2)cc1 5.39%, COC(=O)c1cc(NC(=O)[C@H](CCS(C)(=O)=O)N2Cc3ccccc3C2=O)cc(C(=O)OC)c1 0.171%, COc1ccc(Br)c(C(=O)Nc2cc3c(cc2N2CCCCC2)n(C)c(=O)c(=O)n3C)c1 -3.26%, CCc1cc(C(=O)NC(C)c2ccccc2)no1 (centres undefined) 6.82%, COc1cc(C2CC(=O)N(Cc3ccc(F)cc3)c3ccccc3S2)cc(OC)c1OC (centres undefined) 1.26%, COc1cc2c(cc1OC)C(COc1ccc(F)cc1)N(C(=O)c1ccc(S(=O)(=O)N3CCCC3)cc1)CC2 (centres undefined) 0.606%, COC(=O)c1ccccc1NC(=O)c1ccc2nc(Cc3ccccc3)oc2c1 -6.71%, O=C(CCCn1c(=O)c2ccccc2n(Cc2ccc(F)cc2Cl)c1=O)NCCc1ccc(Cl)cc1 -7.03%, COC(=O)c1ccccc1NC(=O)c1nc(S(=O)(=O)Cc2cccc(C)c2)ncc1Cl -26.5%, CCOc1ccc(-c2cc(-c3nc(-c4cc(OC)c(OC)c(OC)c4)no3)[nH]n2)cc1Cl 5.29%, Cc1ccc(-n2nc(CO)c(C(=O)NCc3cccs3)n2)cc1C 0.445%, Cc1cc(C)cc(NC(=O)CCCN2C(=O)COc3ccc(C)cc32)c1 -11.4%, COc1ccc(C)cc1NC(=O)C1CCN(S(=O)(=O)c2ccc3[nH]c4c(c3c2)CCCCC4)CC1 -5.9%, Nc1cc(=O)nc(SCC(=O)Nc2ccc(F)cc2)n1-c1ccccc1Cl 0.393%, O=C(COc1ccc([N+](=O)[O-])cc1)NCC1(N2CCOCC2)CCCCC1 -4.73%, Oc1c(C(c2ccccc2F)N2CCCCC2)sc2nc(-c3ccco3)nn12 (centres undefined) -2.95%, CC(=O)c1cccc(NC(=O)CSc2nc(=O)n(Cc3cccnc3)c3c2CCC3)c1 -5.58%, O=C(CCc1cn(Cc2ccccc2Cl)c2ccccc12)NC1CCCCC1 -3.46%, Cc1ccc(NC(=O)c2cn3c4c(ccc(Cl)c4c2=O)OC(C)C3)c(C)c1 (centres undefined) 1.6%, CC(C)CC(=O)Nc1ccc(S(=O)(=O)Nc2cc3c(cc2N2CCOCC2)n(C)c(=O)c(=O)n3C)cc1 -4.87%, CCCCc1nc2ccccc2n2c(-c3ccc(OC)cc3)c3c(=O)n(C)c(=O)n(C)c3c12 3.66%, Cc1c(C(=O)N2CCC(C)CC2)c(S(=O)(=O)NCc2ccc(Br)cc2)c(C)n1C 0%, COc1ccc(CNC(=O)c2cc(-c3cccc(Cl)c3)on2)cc1 -10.2%, COc1ccc(-n2ncc(C(=O)N3CCN(c4ncccn4)CC3)c2C2CCN(C(=O)OC(C)(C)C)CC2)cc1 6.31%, Cc1ccccc1Nc1c(-c2ccc(Cl)s2)nc2c(C)cccn12 -23.9%, COc1ccc(OC)c(NC(=O)CCc2c(C)nn(-c3ccc(N4CCCC4)nn3)c2C)c1 -10.3%, CCOc1ccccc1NC(=O)Cn1c(=O)n(CCCC(=O)NCCc2ccc(C)cc2)c(=O)c2ccccc21 -6.58%, COc1ccc(-c2c(C)c3cc(OC(=O)N4CCOCC4)ccc3oc2=O)cc1 0.943%, CC(C)(C)OC(=O)N1CCC(c2c(C(=O)NCCCN3CCc4ccccc4C3)cnn2-c2ccccc2)CC1 -18.6%, Cc1ccc(N2CC(NC(=O)c3ccc(S(=O)(=O)N4CCCC4)cc3)CC2=O)cc1 (centres undefined) 0.629%, O=C(Nc1ccc2c(c1)CCCN2C(=O)c1cccs1)c1c(F)cccc1F -13.3%, COc1ccc(-c2nc(C)c(CCNC(=O)C(=O)Nc3c(C)cccc3C)s2)cc1OC -4.78%, CCc1ccc(CNC(=O)CN(c2ccc(C)cc2)S(=O)(=O)N(C)C)cc1 1.75%, CSc1ccc(CNC(=O)C2CCN(c3nnc(-n4cccc4CNc4ccc(C)cc4)s3)CC2)cc1 -0.107%, N#Cc1c(-n2ncnc2-c2ccc(Br)cc2)sc2c1CCCCC2 9.04%, COc1ccc(OC)c(CCNC(=O)C2CCN(c3ncnc4c3nc3n4CCCCC3)CC2)c1 -3.53%, CCN(CC)S(=O)(=O)c1ccc2c(c1)c(=O)c(C(=O)NCCc1ccc(OC)c(OC)c1)cn2C -14.7%, COc1cccc(CN(C(=O)c2oc3ccc(Br)cc3c2C)C2CCS(=O)(=O)C2)c1 (centres undefined) -5.44%, CCC(=O)N1CCc2cc(Br)cc(S(=O)(=O)NCc3cccc(OC)c3)c21 0.376%, Cc1coc2cc3oc(=O)c(CCC(=O)N4CCCCC4)c(C)c3cc12 -2.44%, COC(=O)CNC(c1ccccc1)c1cc(Br)ccc1NC(=O)c1ccc(Cl)cc1 (centres undefined) 9.76%, Cc1nc2ccn(Cc3ccccc3)c(=O)c2cc1C(=O)Nc1ccc(F)cc1Cl -3.92%, CCOC(=O)c1ccccc1NC(=O)c1c(-c2ccccc2)noc1C -9.51%, CCN(CC)C(=O)CSc1nc(-c2ccccc2)cc(-c2ccc(OC)cc2)c1C#N 2.99%, Cc1ccc(C)c(NC(=O)CCc2nc3cccnc3n2Cc2cccs2)c1 1.42%, Cc1ccc(-c2cc(N)n(Cc3cccc(Cl)c3)n2)cc1 -0.689%, COc1cccc(NC(=O)Cn2c(=O)n(-c3ccccc3)c(=O)c3c4c(sc32)CCCC4)c1 -11.2%, Cc1cc2nc(NC(=O)c3ccc(S(=O)(=O)N4CCOCC4)cc3)sc2cc1C 4.19%

Reference: PubChem BioAssay AID493208 (National Center for Advancing Translational Sciences (NCATS), 2011)
